Data from PubChem BioAssay AID445 (National Center for Advancing Translational Sciences (NCATS), 2006).
Screen size: about 110,000 compounds; about 40 (0.04%) were called active. Inconclusive results, whose numbers are uncertain, are shown with a selection of clear calls. Calls follow the shape of the dose curve; as a rule, active = well fitted curve in the direction sought with a large enough effect in the signal ratio (not every such curve was filed as active); inconclusive = small, poorly fitted or top-dose-only effect, or a change in a side signal; inactive = flat fitted curve, though single readings scatter; the % refers to the signal ratio. Potencies of inconclusive entries are doubtful fits and often do not repeat.

Assay: IkB Signaling;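 as to IkBa stabilization activation: 0% = basal untreated cells and 100% = reference inhibitor full response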
Settings: ABC-DLBCL IkBa-CBG/CBR dual luciferase ratio (green luciferase fused to IkBa over red control in OCI-Ly3 lymphoma cells), 4 h; IkBa stabilization activation: at 57.1 µM (top of the series), scaled: untreated 0%, proteasome inhibitor 100% unless noted
Outline: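 Curves were fitted separately to fusion (green), unfused (red) and ratio luminescence, then classed by r2, magnitude and activity. Cells: OCI-Ly3, 4 h compound plus doxycycline at 37C; 10 uM MG-132 defined full response.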
Potency is read from the fitted curve at half-maximal effect.

Question: For `CC(C)CCSc1nc2c(c(=O)[nH]c(=O)n2C)n1CCc1ccccc1`, which “IkBa stabilization activation” value is on record?
Answer: inactive: -0.936%

Question: For `Cc1cc(C)cc(NC(=O)C2CCCN(S(=O)(=O)c3cccc4nsnc34)C2)c1` (configuration not stated), which IkBa stabilization activation is on record?
Answer: inconclusive: -0.222% [signal inhibitor]

Question: With `C[C@]12C=CC(=O)C=C1CC[C@@H]1[C@H]3C[C@@H](O)[C@](O)(C(=O)CO)[C@@]3(C)C[C@H](O)[C@]12F` as the compound, how does the IkBa stabilization activation read?
Answer: inconclusive: 11.1% [signal activator] [at 25.6 µM, scaled: untreated 0%, proteasome inhibitor 100%]

Question: With `CCOC(=O)c1c(C)[nH]c(C)c1S(=O)(=O)NCC(=O)Nc1ccc(C)cc1C` as the compound, how does the IkBa stabilization activation read?
Answer: inconclusive: -0.178% [signal inhibitor]

Question: Which “IkBa stabilization activation” value does the source give for `Cc1ccc(NC(=O)c2cc(-c3cccc(O)c3)on2)cc1C` here?
Answer: inactive: 11.2%

Question: With `C/C=C/Cn1c(Br)nc2c1c(=O)[nH]c(=O)n2C` as the compound, how does the “IkBa stabilization activation” value read?
Answer: inactive: 1.18%

Question: For `COc1ccc(Cl)cc1N1C(=O)C2CCCN2C1c1sccc1C` (configuration not stated), which IkBa stabilization activation is on record?
Answer: inconclusive: 10.1% [signal inhibitor]

Question: For `COc1ccc(N(CC(=O)NC2CCCC2)C(=O)c2ccc(N3CCCCC3)nc2)cc1`, which IkBa stabilization activation is on record?
Answer: inconclusive: 0.718% [signal inhibitor]

Question: For `COc1ccc(NC(=O)CSc2nc(-c3cccs3)cc(C(F)(F)F)n2)cc1Cl`, which IkBa stabilization activation is on record?
Answer: inconclusive: 1.28% [signal inhibitor]

Question: With `CCc1ccc(C(=O)CC2(O)C(=O)N(CCc3ccccc3)c3ccc(Br)cc32)cc1` (configuration not stated) as the compound, how does the IkBa stabilization activation read?
Answer: inconclusive: -2.67% [signal inhibitor]

Question: With `CCc1c(C)sc2c1CCN(Cc1cccc(OC)c1)C2c1ccccc1` (configuration not stated) as the compound, how does the IkBa stabilization activation read?
Answer: inconclusive: 5.05% [signal inhibitor]

Question: With `CCC1=Nc2cc(C(=O)NCCc3ccc(OC)c(OC)c3)ccc2Sc2ccccc21` as the compound, how does the IkBa stabilization activation read?
Answer: inconclusive: 5.15% [signal inhibitor]

Question: Which IkBa stabilization activation does the source give for `CCCCN(CCCC)CCNC(=O)Cn1nc(CC)n2c(cc3sccc32)c1=O` here?
Answer: inconclusive: 0.557% [signal inhibitor]

Question: Which IkBa stabilization activation does the source give for `CCc1ccccc1S(=O)(=O)Cc1ccc(C(=O)NCc2ccc(Cl)cc2)o1` here?
Answer: inconclusive: 0.484% [signal inhibitor]

Question: Which “IkBa stabilization activation” value does the source give for `COC(=O)c1ccc(Cl)cc1NC(=O)Nc1nnc(N(C)C2CCCCC2)s1` here?
Answer: inactive: -1.1%

Question: With `CC(=O)Nc1ccc(N/C=C/C(=O)c2ccco2)cc1` as the compound, how does the “IkBa stabilization activation” value read?
Answer: inactive: 3.69%

Question: For `COc1ccc(NC(=O)Nc2nnc(SCC(=O)Nc3cccc(C)c3C)s2)cc1`, which “IkBa stabilization activation” value is on record?
Answer: inactive: 1.31%

Question: Which IkBa stabilization activation does the source give for `Cc1onc(-c2ccccc2Cl)c1C(=O)Nc1cccc(-c2cn3cccnc3n2)c1` here?
Answer: inconclusive: 0.492% [signal inhibitor]

Question: For `CCCCC[C@H](O)/C=C\[C@@H]1[C@H](O)CC(=O)[C@@H]1CCCCCCC(=O)O`, which “IkBa stabilization activation” value is on record?
Answer: inactive: 1.35% [at 25.6 µM, scaled: untreated 0%, proteasome inhibitor 100%]

Question: For `CCn1cnc2c(=O)oc3ccc(S(=O)(=O)N4CCN(c5cc(C)ccc5C)CC4)cc3c21`, which IkBa stabilization activation is on record?
Answer: inconclusive: 8.14% [signal inhibitor]

Question: With `O=S(=O)(NCCc1ccc(Cl)cc1)c1ccc(N2CCCCS2(=O)=O)cc1` as the compound, how does the IkBa stabilization activation read?
Answer: inconclusive: 0.272% [signal inhibitor]

Question: For `O=C(Cc1cc(=O)[nH]c(=O)[nH]1)N1CCC(Cc2ccccc2)CC1`, which “IkBa stabilization activation” value is on record?
Answer: inactive: 1.25%

Question: For `COc1ccc(C2=C(C)C(=O)N(Cc3ccc(C(=O)NCc4ccccc4C)cc3)S2(=O)=O)cc1`, which IkBa stabilization activation is on record?
Answer: inconclusive: -0.216% [signal inhibitor]

Question: For `O=C(Cc1cccs1)NCc1ccco1`, which “IkBa stabilization activation” value is on record?
Answer: inactive: 1.07%

Question: Which IkBa stabilization activation does the source give for `CCc1nc2ccccc2c(=O)n1NC(=O)c1c(O)c2cccc3c2n(c1=O)CCC3` here?
Answer: inconclusive: 1.57% [signal inhibitor]

Question: Which IkBa stabilization activation does the source give for `CCOc1ccc(NC(=O)CCn2c(-c3ccc(F)cc3)cc(C(C)=O)c2C)cc1` here?
Answer: inconclusive: 1.16% [signal inhibitor]

Question: With `CCN(C(=O)CCS(=O)(=O)c1ccc(Br)cc1)c1ccc2c(c1)OCO2` as the compound, how does the IkBa stabilization activation read?
Answer: inconclusive: -0.185% [signal inhibitor]

Question: For `O=C(CSc1nnc(-c2ccccc2)c(-c2ccccc2)n1)Nc1ccccc1Cl`, which IkBa stabilization activation is on record?
Answer: inconclusive: 0.424% [signal inhibitor]

Question: With `COc1ccccc1OCCCn1c(-c2ccc(Cl)cc2)nc2ccccc2c1=O` as the compound, how does the IkBa stabilization activation read?
Answer: inconclusive: 1.64% [signal inhibitor]

Question: With `Cc1ccc(-c2noc(CCC(=O)NCCCN3CCN(c4cccc(Cl)c4)CC3)n2)cc1` as the compound, how does the IkBa stabilization activation read?
Answer: inconclusive: -1.36% [signal inhibitor]

Question: For `CCC(C)Cn1c(COc2ccc(OC)cc2)nc2ccccc21` (configuration not stated), which IkBa stabilization activation is on record?
Answer: inconclusive: 3.61% [signal inhibitor]

Question: For `Cc1cc(C)c2cc(CN(CC3CCCO3)C(=O)NC3CCCCC3)c(=O)[nH]c2c1` (configuration not stated), which IkBa stabilization activation is on record?
Answer: inconclusive: 2.08% [signal inhibitor]

Question: Which IkBa stabilization activation does the source give for `COc1ccc(NC(=O)CCc2nc3cccnc3n2Cc2cccs2)c(OC)c1` here?
Answer: inconclusive: 1.43% [signal inhibitor]

Question: For `Cc1nnc(SCC(=O)Nc2ccc(Cl)cn2)n1Cc1ccccc1`, which IkBa stabilization activation is on record?
Answer: inconclusive: 1.07% [signal inhibitor]

Question: For `CCn1c(O)c(C2=NCCCC2)c2ccccc21`, which “IkBa stabilization activation” value is on record?
Answer: inactive: -2.2%

Question: Which IkBa stabilization activation does the source give for `Cc1ccc(CN2C(=O)SC(Nc3ccccc3)C2=O)cc1` (configuration not stated) here?
Answer: inconclusive: 9.95% [signal inhibitor]

Question: Which Potency does the source give for `O=C1NC(=S)SC1=C1CCCCCC1` here?
Answer: inconclusive: 5.01 µM [signal inhibitor, partial curve]

Question: Which Potency does the source give for `CC(C)CCSc1nc2c(c(=O)n(C)c(=O)n2C)n1Cc1ccccc1Cl` here?
Answer: inconclusive: 3.98 µM [signal inhibitor, full curve, poor fit]

Question: Which IkBa stabilization activation does the source give for `O=C(C1CCN(S(=O)(=O)c2cccc3nonc23)CC1)N1CCN(c2ccc(F)cc2)CC1` here?
Answer: inconclusive: 2.92% [signal inhibitor]

Question: Which Potency does the source give for `Nc1nc(-c2cccs2)c(NC(=O)c2ccccc2)s1` here?
Answer: inconclusive: 12.6 µM [signal inhibitor, partial curve]

Question: Which “IkBa stabilization activation” value does the source give for `Cc1cc(C)cc(OC(=O)c2cc(-c3ccc4c(c3)OCCO4)on2)c1` here?
Answer: inactive: 1.68%

Question: With `CN(C)CCCN1c2ccccc2Sc2ccc(Cl)cc21` as the compound, how does the IkBa stabilization activation read?
Answer: inactive

Question: With `COc1ccc(/C=C/c2nc(-c3ccccc3O)n(-c3ccccc3)n2)cc1OC` as the compound, how does the IkBa stabilization activation read?
Answer: inconclusive: -0.638% [signal inhibitor]

Question: For `COc1cc(N)c(Cl)cc1C(=O)N[C@H]1CCN(CCCOc2ccc(F)cc2)C[C@@H]1OC`, which IkBa stabilization activation is on record?
Answer: inconclusive: 1.59% [signal inhibitor]

Question: Which IkBa stabilization activation does the source give for `CC(=O)c1ccc(NC(=O)C(Cc2ccccc2)NS(=O)(=O)c2ccc3c(c2)CCC(=O)N3)cc1` (configuration not stated) here?
Answer: inconclusive: 5.08% [signal inhibitor]

Question: With `Cc1cccc(C(=O)Nc2nnc(S(=O)(=O)N3CCC(C)CC3)s2)c1` as the compound, how does the IkBa stabilization activation read?
Answer: inconclusive: 4.25% [signal inhibitor]

Question: Which Potency does the source give for `CN1CCN(C(=O)c2cc(-c3cccc(Cl)c3)on2)CC1` here?
Answer: inconclusive: 20 µM [signal inhibitor, partial curve]

Question: With `O=C(c1ccco1)N1CCC2(CC1)CN(C(c1ccccc1)c1ccccc1)C2` as the compound, how does the IkBa stabilization activation read?
Answer: inactive: 2.47% [at 11.4 µM, scaled: untreated 0%, proteasome inhibitor 100%]

Question: Which “IkBa stabilization activation” value does the source give for `COc1ccc(C(=O)N(Cc2ccco2)Cc2cccs2)c(O)c1` here?
Answer: inactive: 1.04%

Question: Which IkBa stabilization activation does the source give for `Cc1cccc(C)c1OCC(=O)Nc1cccc(NC(=O)c2ccco2)c1` here?
Answer: inconclusive: 4% [signal inhibitor]

Question: With `CC(=O)c1cccc(NC(=O)Cn2c(-c3cncs3)nc3ccccc32)c1` as the compound, how does the IkBa stabilization activation read?
Answer: inconclusive: 11.2% [signal inhibitor]

Question: Which IkBa stabilization activation does the source give for `CCc1cccc(NC(=O)c2cc(S(=O)(=O)N3CCCCCC3)cn2C)c1` here?
Answer: inconclusive: -0.0861% [signal inhibitor]

Question: With `COc1ccccc1NC(=O)c1sc2nc(C)c(C(=O)Nc3ccc(Cl)cc3)c(-c3ccc(Br)cc3)c2c1N` as the compound, how does the IkBa stabilization activation read?
Answer: inconclusive: 10.6% [signal inhibitor]

Question: For `CC(C)(C)C(=O)NC1CC(=O)N(c2ccc3c(c2)OCCO3)C1` (configuration not stated), which “IkBa stabilization activation” value is on record?
Answer: inactive: -0.377%

Question: Which IkBa stabilization activation does the source give for `Cc1ccccc1CN1CCC(CNC(=O)c2cc3ccc4cccnc4c3[nH]2)CC1` here?
Answer: inconclusive: -1.53% [signal inhibitor]

Question: With `CN(C)c1ccnc2sc(C(=O)NCc3ccccc3)c(N)c12` as the compound, how does the IkBa stabilization activation read?
Answer: inconclusive: 2.01% [signal inhibitor]

Question: With `CCc1ccc2oc(C(=O)Nc3nc(-c4ccc(F)cc4)ns3)c(C)c2c1` as the compound, how does the IkBa stabilization activation read?
Answer: inconclusive: 0.358% [signal inhibitor]

Question: For `CC1=C(CC[C@H](C)CO)O[C@@H]2C[C@@H]3[C@H]4CC[C@H]5C[C@@H](O)CC[C@]5(C)[C@@H]4CC(=O)[C@@]3(C)[C@@H]12`, which IkBa stabilization activation is on record?
Answer: inactive: 5.16% [at 11.4 µM, scaled: untreated 0%, proteasome inhibitor 100%]

Question: For `Cc1c(C2=CCN(S(=O)(=O)c3ccc(Cl)cc3)CC2)c2ccccc2n1CC(=O)N1CCCC1`, which “IkBa stabilization activation” value is on record?
Answer: inactive: 0.243%

Question: Which “IkBa stabilization activation” value does the source give for `Cc1ccc(NC(=O)c2cc(C)on2)cc1` here?
Answer: inactive: 1.61%

Question: With `CCOc1ccccc1CNC(=O)C1CCN(c2nnc(C)c3c(C)n(-c4ccc(C)cc4)nc23)CC1` as the compound, how does the IkBa stabilization activation read?
Answer: inconclusive: 4.52% [signal inhibitor]

Question: Which Potency does the source give for `COC(=O)CCC/C=C1/SCC(NC(=O)c2ccccc2)C1O` (configuration not stated) here?
Answer: inconclusive: 15.8 µM [signal inhibitor, partial curve]

Question: With `N#C/C(=C(\O)C(=O)O)c1ccc(-c2cccc3ccccc23)cc1` as the compound, how does the IkBa stabilization activation read?
Answer: inactive: 0.241% [at 11.4 µM, scaled: untreated 0%, proteasome inhibitor 100%]

Question: With `O=C(CC1(O)C(=O)N(CCc2ccccc2)c2ccc(Br)cc21)c1ccccc1` (configuration not stated) as the compound, how does the IkBa stabilization activation read?
Answer: inconclusive: -1.76% [signal inhibitor]

Question: For `CCn1c(SCC(=O)NCCOC)nc2sc(C)c(C)c2c1=O`, which “IkBa stabilization activation” value is on record?
Answer: inactive: -1.41%

Question: Which “IkBa stabilization activation” value does the source give for `CC(=O)Nc1ccc(Nc2nc3ccc(Cl)cc3n3cnnc23)cc1` here?
Answer: inactive: 2.38%

Question: Which IkBa stabilization activation does the source give for `COc1ccc(S(=O)(=O)N(Cc2nc(-c3ccccc3)no2)C2CCCCC2)cc1` here?
Answer: inconclusive: 0.267% [signal inhibitor]
